To fix the notation:
B1: Caulobacter ParB omega fusion; a variant is named by its letters at X, in order, B8GW30 (parent)
chain: MESVVVGEPGMSEGRRGLGRGLSALLGEVDAAPAQAPGEQLGGSREAPIEILQRNPDQPRRTFREEDLEDLSNSIREKGVLQPILVRPSPDTAGEYQIVAGERAWRAAQRAGLKTVPIMVRELDDLAVLEIGIIENVQRADLNVLEEALSYKVLMEKFERTQENIAQTIGKSXSHVANXMRLLXLPDEVQSYLVSGELTAXHARAIAAAADPVALAKQIIEGGLSVRETEALARKAPNLSAGKSKGGRPPRVKDTDTQALESDLSSVLGLDVSIDHRGSTGTLTITYATLEQLDDLCNRLTRGI

Over roughly 81,000 sequences, “one-hybrid fitness for binding parS DNA” has its median near -0.17; the highest 2% begin near 0.51. The list shows a part of the results.

The assay covers variants of B1. Description: one-hybrid fitness for binding parS DNA (scaled: cognate 1, non-cognate 0); higher = stronger binding. Conditions: with parS DNA site. Put shortly:
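Fitness is the rescaled log change in variant-to-wild-type read ratio, measured by Illumina sequencing of plasmids before and after bacterial one-hybrid selection. The scale puts cognate at 1 and non-cognate at 0. Selection of Caulobacter ParB libraries, four specificity codons randomised, took place in E. coli USO with a HIS3 reporter, site 19 bp from the promoter, over 48 hours at 37°C on M9-minus-histidine with 0.1 mM IPTG and 5 mM 3-AT.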
As to RMQA, the “one-hybrid fitness for binding parS DNA” value was found to be 0.574.

On to IFPT, for which the “one-hybrid fitness for binding parS DNA” value was at most 0.2.

As for EGIS, the “one-hybrid fitness for binding parS DNA” value is at most 0.2.

On to HTDS, for which the “one-hybrid fitness for binding parS DNA” value was at most 0.2.

Turning to LFSE, the “one-hybrid fitness for binding parS DNA” value is at most 0.2.

Regarding AGTM, the “one-hybrid fitness for binding parS DNA” value was at most 0.2.

For QHEW, the “one-hybrid fitness for binding parS DNA” value is at most 0.2.

YRMI: the “one-hybrid fitness for binding parS DNA” value is at most 0.2.

Consider FLNC, for which the “one-hybrid fitness for binding parS DNA” value is at most 0.2.

As for EHRC, the “one-hybrid fitness for binding parS DNA” value was at most 0.2.

As for LNVM, the “one-hybrid fitness for binding parS DNA” value was at most 0.2.

For the variant AYCG, the “one-hybrid fitness for binding parS DNA” value was at most 0.2.

Regarding AGTH, the “one-hybrid fitness for binding parS DNA” value was at most 0.2.

As to AAQG, the “one-hybrid fitness for binding parS DNA” value is at most 0.2.

As for IAKT, the “one-hybrid fitness for binding parS DNA” value was at most 0.2.

With QPLS, the “one-hybrid fitness for binding parS DNA” value is at most 0.2.

On to GYNP, for which the “one-hybrid fitness for binding parS DNA” value was at most 0.2.

For YPVQ, the “one-hybrid fitness for binding parS DNA” value was at most 0.2.

Turning to SAVF, the “one-hybrid fitness for binding parS DNA” value is at most 0.2.

For INRM, the “one-hybrid fitness for binding parS DNA” value was at most 0.2.

WGDS: the “one-hybrid fitness for binding parS DNA” value was at most 0.2.

As for FVGR, the “one-hybrid fitness for binding parS DNA” value was at most 0.2.

As to ITTV, the “one-hybrid fitness for binding parS DNA” value was at most 0.2.

Consider RIQW, for which the “one-hybrid fitness for binding parS DNA” value came out at 0.202.

Take EKKN: the “one-hybrid fitness for binding parS DNA” value was at most 0.2.

Take DYTE: the “one-hybrid fitness for binding parS DNA” value is at most 0.2.

With SPQE, the “one-hybrid fitness for binding parS DNA” value was at most 0.2.

Consider CSFV, for which the “one-hybrid fitness for binding parS DNA” value is at most 0.2.

On to GIKG, for which the “one-hybrid fitness for binding parS DNA” value was at most 0.2.

CSGR: the “one-hybrid fitness for binding parS DNA” value was at most 0.2.

As to LHKY, the “one-hybrid fitness for binding parS DNA” value was at most 0.2.

In the case of KRKM, the “one-hybrid fitness for binding parS DNA” value is at most 0.2.

In the case of CCCG, the “one-hybrid fitness for binding parS DNA” value was at most 0.2.

Turning to QNDH, the “one-hybrid fitness for binding parS DNA” value was at most 0.2.

In the case of FTNF, the “one-hybrid fitness for binding parS DNA” value is at most 0.2.

In the case of MHMI, the “one-hybrid fitness for binding parS DNA” value was at most 0.2.

As to RVDQ, the “one-hybrid fitness for binding parS DNA” value was at most 0.2.

For the variant LNVF, the “one-hybrid fitness for binding parS DNA” value is at most 0.2.

As to IDNG, the “one-hybrid fitness for binding parS DNA” value is at most 0.2.

Take RMFR: the “one-hybrid fitness for binding parS DNA” value is at most 0.2.

For the variant HSNY, the “one-hybrid fitness for binding parS DNA” value is at most 0.2.

On to VCTG, for which the “one-hybrid fitness for binding parS DNA” value is at most 0.2.

Turning to CKKM, the “one-hybrid fitness for binding parS DNA” value is at most 0.2.

Consider RLCI, for which the “one-hybrid fitness for binding parS DNA” value is at most 0.2.

PGHI: the “one-hybrid fitness for binding parS DNA” value is at most 0.2.

Regarding DVSY, the “one-hybrid fitness for binding parS DNA” value is at most 0.2.

In the case of EKIC, the “one-hybrid fitness for binding parS DNA” value was at most 0.2.

Consider EYKY, for which the “one-hybrid fitness for binding parS DNA” value is at most 0.2.

Consider LRYA, for which the “one-hybrid fitness for binding parS DNA” value is at most 0.2.

Regarding DDWN, the “one-hybrid fitness for binding parS DNA” value was at most 0.2.

As for KKMD, the “one-hybrid fitness for binding parS DNA” value is at most 0.2.

For WWGS, the “one-hybrid fitness for binding parS DNA” value was at most 0.2.

Turning to PFSN, the “one-hybrid fitness for binding parS DNA” value was at most 0.2.

In the case of EMIG, the “one-hybrid fitness for binding parS DNA” value was at most 0.2.

Consider VNAR, for which the “one-hybrid fitness for binding parS DNA” value was at most 0.2.

Turning to QIVG, the “one-hybrid fitness for binding parS DNA” value was at most 0.2.

Take QVYA: the “one-hybrid fitness for binding parS DNA” value is at most 0.2.

GVAF: the “one-hybrid fitness for binding parS DNA” value is at most 0.2.

With MVMG, the “one-hybrid fitness for binding parS DNA” value was at most 0.2.

With WLDS, the “one-hybrid fitness for binding parS DNA” value was determined as 0.221.

As to PFET, the “one-hybrid fitness for binding parS DNA” value is at most 0.2.

Turning to PLDM, the “one-hybrid fitness for binding parS DNA” value was at most 0.2.

LDYD: the “one-hybrid fitness for binding parS DNA” value is at most 0.2.

As to PIVY, the “one-hybrid fitness for binding parS DNA” value is at most 0.2.

As for CPAG, the “one-hybrid fitness for binding parS DNA” value is at most 0.2.

Take KCCG: the “one-hybrid fitness for binding parS DNA” value is at most 0.2.

Turning to NYVV, the “one-hybrid fitness for binding parS DNA” value is at most 0.2.

Take SATK: the “one-hybrid fitness for binding parS DNA” value is at most 0.2.

Regarding LRTF, the “one-hybrid fitness for binding parS DNA” value was at most 0.2.

With PHYR, the “one-hybrid fitness for binding parS DNA” value was at most 0.2.

As to TMKA, the “one-hybrid fitness for binding parS DNA” value is at most 0.2.

For LALG, the “one-hybrid fitness for binding parS DNA” value was at most 0.2.

With ITVT, the “one-hybrid fitness for binding parS DNA” value is at most 0.2.

Turning to RWWA, the “one-hybrid fitness for binding parS DNA” value came out at 0.254.

On to LSKW, for which the “one-hybrid fitness for binding parS DNA” value was at most 0.2.

Take QMLG: the “one-hybrid fitness for binding parS DNA” value was at most 0.2.

With NASK, the “one-hybrid fitness for binding parS DNA” value is at most 0.2.

For PEDR, the “one-hybrid fitness for binding parS DNA” value is at most 0.2.

For the variant PQVK, the “one-hybrid fitness for binding parS DNA” value is at most 0.2.

For the variant FMHR, the “one-hybrid fitness for binding parS DNA” value was at most 0.2.

Consider QRAD, for which the “one-hybrid fitness for binding parS DNA” value was at most 0.2.

Consider NNSA, for which the “one-hybrid fitness for binding parS DNA” value is at most 0.2.

Consider YRAK, for which the “one-hybrid fitness for binding parS DNA” value was at most 0.2.

Take RWPN: the “one-hybrid fitness for binding parS DNA” value is at most 0.2.

Turning to RQAM, the “one-hybrid fitness for binding parS DNA” value came to 0.292.

DRQG: the “one-hybrid fitness for binding parS DNA” value is at most 0.2.

For the variant FLEF, the “one-hybrid fitness for binding parS DNA” value is at most 0.2.

DGPT: the “one-hybrid fitness for binding parS DNA” value was at most 0.2.

As for ERET, the “one-hybrid fitness for binding parS DNA” value was at most 0.2.

As for YTRY, the “one-hybrid fitness for binding parS DNA” value was at most 0.2.

Consider QSKW, for which the “one-hybrid fitness for binding parS DNA” value is at most 0.2.

Regarding TYLM, the “one-hybrid fitness for binding parS DNA” value was at most 0.2.

In the case of LNDG, the “one-hybrid fitness for binding parS DNA” value was at most 0.2.

Take KSRC: the “one-hybrid fitness for binding parS DNA” value was at most 0.2.

DTHL: the “one-hybrid fitness for binding parS DNA” value is at most 0.2.

Turning to RRYA, the “one-hybrid fitness for binding parS DNA” value amounted to 0.813.

As to RPPH, the “one-hybrid fitness for binding parS DNA” value was at most 0.2.
